Data on 17 variants can be found in the supplement of paper PMC7125110.

B1: glmS ribozyme (parent)
chain: AUAAAAGCGCCAGAACUACAGAAAUGUAGUUGACGAGGAGGAGGUUUAUCGAAUUUUCGGCGGAUGCCUCCAAA

± gives the standard error. This sample is rich in variants without activity. Where only a bound is given, the exact number is not on record here.

Holding throughout (conditions): with glucosamine-6-phosphate
Data set [1] covers variants of B1. Description: self-cleavage kobs at 40 uM GlcN6P; higher = faster cleavage; RNA array. In a few lines: (§1)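 Glucosamine-6-phosphate, from 40 μM to 10 mM in HEPES/KCl/Mg(OAc)2 buffer, was flowed over sequenced MiSeq chips carrying barcoded ribozyme variants transcribed in situ by E. coli RNA polymerase. A hybridised Cy3 probe tracked the variants at 37 °C as tiles were imaged over ~14 h. kobs, kcat and KM were obtained by fitting normalised per-tile medians to exponential decays and then applying weighted Michaelis–Menten fits across concentrations.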

In data set [2] the parent is B1. Description: self-cleavage kobs at 10000 uM GlcN6P; higher = faster cleavage; RNA array. In a few lines: as §1
In data set [3] the parent is B1. Description: self-cleavage kobs at 640 uM GlcN6P; higher = faster cleavage; RNA array. In a few lines: as §1
Data set [4] covers variants of B1. Put plainly: self-cleavage kobs at 160 uM GlcN6P; higher = faster cleavage; RNA array. In a few lines: as §1
Variants of B1 are the subject of data set [5]. Description: self-cleavage kobs at 2500 uM GlcN6P; higher = faster cleavage; RNA array. In a few lines:
as §1

Take AUAAAAGCGCCAGAACUACAGAAAUGUAGUUGACGAGGAGGAGGUUUACCGAAUUUUCGCCGGAUGCCCCCAAA [U49C G60C U69C]: the “self-cleavage kobs at 40 uM GlcN6P” value in the data set with glucosamine-6-phosphate [1] was less than 1e-05 s⁻¹. The “self-cleavage kobs at 10000 uM GlcN6P” value in the data set with glucosamine-6-phosphate [2] is less than 1e-05 s⁻¹.

With AUAAAAGCGCCAGAACUACAGAAAUGUAGUUGACGAGGAGGAGGUUUAUGGAAUUUACGGCGGAUGCCUCCAAA [C50G U57A], the “self-cleavage kobs at 40 uM GlcN6P” value with glucosamine-6-phosphate [1] worked out at 3.58e-05 ± 1.6e-05 s⁻¹. In addition, the “self-cleavage kobs at 640 uM GlcN6P” value in the data set with glucosamine-6-phosphate [3] was 5.84e-05 ± 1.6e-05 s⁻¹. For the same variant, in the data set with glucosamine-6-phosphate [4], the “self-cleavage kobs at 160 uM GlcN6P” value turned out to be 8.31e-05 ± 1.4e-05 s⁻¹. For the same variant, the “self-cleavage kobs at 2500 uM GlcN6P” value with glucosamine-6-phosphate [5] came to 6.05e-05 ± 2.7e-05 s⁻¹.

On to AUAAAAGCGCCAGAACUACAGAAAUGUAGUUGACGAGGAGGAGGUUUAUCAAAUUUUCGGCGGGUGCCUCCAAA [G51A A64G], for which the “self-cleavage kobs at 40 uM GlcN6P” value with glucosamine-6-phosphate [1] was less than 1e-05 s⁻¹. Further, the “self-cleavage kobs at 640 uM GlcN6P” value with glucosamine-6-phosphate [3] was less than 1e-05 s⁻¹. Also, the “self-cleavage kobs at 160 uM GlcN6P” value in the data set with glucosamine-6-phosphate [4] was less than 1e-05 s⁻¹. Moreover, the “self-cleavage kobs at 2500 uM GlcN6P” value with glucosamine-6-phosphate [5] is less than 1e-05 s⁻¹.

As to AUAAAAGCGCCAGAACUACAGAAAUGUAGUUGACGAGGAGGAGGUUUAGCGAUUUAUCGGCGGAUGACUACAAA [U49G A53U U56A C67A C70A], in the data set with glucosamine-6-phosphate [1], the “self-cleavage kobs at 40 uM GlcN6P” value is 4.31e-05 ± 1.9e-05 s⁻¹.

For AUAAAAGCGCCAGAACUACAGAAAUGUAGUUGACGAGGAGGAGGUUUAUUGAAUUUUCGGGGUAUGCCUCCAAA [C50U C61G G63U], the “self-cleavage kobs at 40 uM GlcN6P” value with glucosamine-6-phosphate [1] is less than 1e-05 s⁻¹.

On to AUAAAAGCGCCAGAACUACAGAAAUGUAGUUGACGAGGAGGAGGUUUACCGAAUUUUCGGCGGAGGCCUCCAAA [U49C U65G], for which the “self-cleavage kobs at 40 uM GlcN6P” value with glucosamine-6-phosphate [1] was less than 1e-05 s⁻¹. Moreover, the “self-cleavage kobs at 2500 uM GlcN6P” value in the data set with glucosamine-6-phosphate [5] is less than 1e-05 s⁻¹. Further, the “self-cleavage kobs at 10000 uM GlcN6P” value with glucosamine-6-phosphate [2] is less than 1e-05 s⁻¹.

Take AUAAAAGCGCCAGAACUACAGAAAUGUAGUUGACGAGGAGGAGGUUUAGCGAAUUUUCUGCGGAUGCCUCCAAA [U49G G59U]: the “self-cleavage kobs at 40 uM GlcN6P” value with glucosamine-6-phosphate [1] was less than 1e-05 s⁻¹. For the same variant, the “self-cleavage kobs at 160 uM GlcN6P” value with glucosamine-6-phosphate [4] was less than 1e-05 s⁻¹. Moreover, in the data set with glucosamine-6-phosphate [5], the “self-cleavage kobs at 2500 uM GlcN6P” value was less than 1e-05 s⁻¹. In addition, the “self-cleavage kobs at 10000 uM GlcN6P” value with glucosamine-6-phosphate [2] is less than 1e-05 s⁻¹.

Take AUAAAAGCGCCAGAACUACAGAAAUGUAGUUGACGAGGAGGAGGUUUAUUGAAUUCUCGGCGGAUGCCUCCAAA [C50U U56C]: the “self-cleavage kobs at 40 uM GlcN6P” value in the data set with glucosamine-6-phosphate [1] is less than 1e-05 s⁻¹. Further, the “self-cleavage kobs at 160 uM GlcN6P” value with glucosamine-6-phosphate [4] is less than 1e-05 s⁻¹.

As for AUAAAAGCGCCAGAACUACAGAAAUGUAGUUGACGAGGAGGAGGUUUAUCAAAUUUUUUGCGGAUGCCUCCAAA [G51A C58U G59U], in the data set with glucosamine-6-phosphate [1], the “self-cleavage kobs at 40 uM GlcN6P” value was less than 1e-05 s⁻¹.

Regarding AUAAAAGCGCCAGAACUACAGAAAUGUAGUUGACGAGGAGGAGGUUUAUAGAAUUUUCGGCUGAUGCCUCCAAA [C50A G62U], the “self-cleavage kobs at 40 uM GlcN6P” value in the data set with glucosamine-6-phosphate [1] was less than 1e-05 s⁻¹. Besides, the “self-cleavage kobs at 10000 uM GlcN6P” value with glucosamine-6-phosphate [2] is less than 1e-05 s⁻¹.

As for AUAAAAGCGCCAGAACUACAGAAAUGUAGUUGACGAGGAGGAGGUUUAUGGAAUUUUCGGCGAAUGCACCCAAA [C50G G63A C68A U69C], in the data set with glucosamine-6-phosphate [1], the “self-cleavage kobs at 40 uM GlcN6P” value is 0.000106 ± 2.3e-05 s⁻¹. Also, the “self-cleavage kobs at 10000 uM GlcN6P” value with glucosamine-6-phosphate [2] worked out at 0.000147 ± 2.8e-05 s⁻¹.

Consider AUAAAAGCGCCAGAACUACAGAAAUGUAGUUGACGAGGAGGAGGUUUAGCGAAUUUUCGGCGGAUUCCUCCAAA [U49G G66U], for which the “self-cleavage kobs at 40 uM GlcN6P” value with glucosamine-6-phosphate [1] was less than 1e-05 s⁻¹. Moreover, the “self-cleavage kobs at 640 uM GlcN6P” value in the data set with glucosamine-6-phosphate [3] is less than 1e-05 s⁻¹. Further, in the data set with glucosamine-6-phosphate [4], the “self-cleavage kobs at 160 uM GlcN6P” value was less than 1e-05 s⁻¹.

Turning to AUAAAAGCGCCAGAACUACAGAAAUGUAGUUGACGAGGAGGAGGUUUAUUGAAUUUUCGGUGGAUGCAUCCAAA [C50U C61U C68A], the “self-cleavage kobs at 40 uM GlcN6P” value with glucosamine-6-phosphate [1] was less than 1e-05 s⁻¹.

Regarding AUAAAAGCGCCAGAACUACAGAAAUGUAGUUGACGAGGAGGAGGUUUAUCAAAUUUUCGGCGGAUGCCUCCAAA [G51A], the “self-cleavage kobs at 40 uM GlcN6P” value in the data set with glucosamine-6-phosphate [1] was less than 1e-05 s⁻¹. Also, in the data set with glucosamine-6-phosphate [2], the “self-cleavage kobs at 10000 uM GlcN6P” value is less than 1e-05 s⁻¹.

Turning to AUAAAAGCGCCAGAACUACAGAAAUGUAGUUGACGAGGAGGAGGUUUAUUGUAUUUUCGGCGGAUGCCUCAAAA [C50U A52U C71A], the “self-cleavage kobs at 40 uM GlcN6P” value with glucosamine-6-phosphate [1] was less than 1e-05 s⁻¹.

For AUAAAAGCGCCAGAACUACAGAAAUGUAGUUGACGAGGAGGAGGUUUAUGGAAUUUUAGGCGGAUGCGUCUAAA [C50G C58A C68G C71U], the “self-cleavage kobs at 40 uM GlcN6P” value with glucosamine-6-phosphate [1] was determined as 9.15e-05 ± 1.8e-05 s⁻¹. In addition, in the data set with glucosamine-6-phosphate [2], the “self-cleavage kobs at 10000 uM GlcN6P” value came out at 0.00024 ± 5.2e-05 s⁻¹.

On to AUAAAAGCGCCAGAACUACAGAAAUGUAGUUGACGAGGAGGAGGUUUAUUGAAUUUUCGGCGGAGGCCUCCAAA [C50U U65G], for which the “self-cleavage kobs at 40 uM GlcN6P” value in the data set with glucosamine-6-phosphate [1] was less than 1e-05 s⁻¹.
